The results in this text go back to the supplement of paper PMC8291772.

± gives the standard error. This is one part of the list.

The target in this test is terminal deoxynucleotidyl transferase (calf thymus) (UniProt P06526). Briefly: TdT poly-dT extension signal (Cy3 hybridisation fluorescence, uncapped minus capped) (fluorescence a.u.); higher = more efficient initiation of TdT extension. The note with it: initiator chemistry: L-DNA (mirror-image), free 5'-OH (3'-tethered via HEG linker). The method, then: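 All mono- to pentamer D-DNA or L-DNA initiators were made by forward (3'->5') photolithographic in situ synthesis on glass on a hexaethylene glycol linker, leaving a free 5'-OH. Each was made in uncapped and DMTr-dT-capped versions, about 11 replicates each. Arrays were extended with calf thymus TdT (0.2 U/uL), 100 uM dTTP and 0.25 mM CoCl2 for 120 min at 37 C, hybridised with an rA18-Cy3 probe and scanned at 532 nm. The value is the mean uncapped minus the mean capped signal. IDs read 5'->3'. L-DNA is mirror-image; D-DNA 5'-OH initiators were below LOD (no extension).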
Chain of UniProt P06526 (P06526 whole entry): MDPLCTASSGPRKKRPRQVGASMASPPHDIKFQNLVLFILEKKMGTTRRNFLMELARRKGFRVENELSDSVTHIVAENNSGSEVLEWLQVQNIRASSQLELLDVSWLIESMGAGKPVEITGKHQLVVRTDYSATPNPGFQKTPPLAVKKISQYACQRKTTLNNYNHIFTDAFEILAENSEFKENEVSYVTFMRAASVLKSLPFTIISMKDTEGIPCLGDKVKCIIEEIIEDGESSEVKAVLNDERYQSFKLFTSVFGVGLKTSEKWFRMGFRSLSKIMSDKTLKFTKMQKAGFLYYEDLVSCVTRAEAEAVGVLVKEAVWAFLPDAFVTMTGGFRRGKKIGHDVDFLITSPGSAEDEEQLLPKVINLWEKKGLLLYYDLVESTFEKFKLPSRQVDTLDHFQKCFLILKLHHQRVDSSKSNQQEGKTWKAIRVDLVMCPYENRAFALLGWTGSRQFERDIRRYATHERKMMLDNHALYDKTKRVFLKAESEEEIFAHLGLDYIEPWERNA
Turning to ACTAG, the “TdT poly-dT extension signal” value was found to be 99.9 ± 7.2.
Consider TTACA, for which the “TdT poly-dT extension signal” value was 344 ± 20.
With GGCGG, the “TdT poly-dT extension signal” value came out at 71.8 ± 9.6.
For TTGT the value was 258 ± 19; for ACTG, 58 ± 8; for GTCC, 98.5 ± 11.
Consider CACGT, for which the “TdT poly-dT extension signal” value was determined as 52.8 ± 7.1.
As for TGGTA, the “TdT poly-dT extension signal” value is 82.2 ± 5.3.
In the case of CGAGC, the “TdT poly-dT extension signal” value was 65 ± 6.4.
On to CGCAC, for which the “TdT poly-dT extension signal” value turned out to be 50.3 ± 7.4.
For GCGA the value was 76.3 ± 7.8.
The value for CTGT was 120 ± 13; that for CTTA was 153 ± 11; that for AGAAT was 81.9 ± 10.
Consider TTCAC, for which the “TdT poly-dT extension signal” value worked out at 371 ± 39.
Take TTAA: the “TdT poly-dT extension signal” value turned out to be 347 ± 25.
The value for ATCC was 129 ± 9.2.
The value for GAGCG was 76.8 ± 7.2.
Consider CTCA, for which the “TdT poly-dT extension signal” value came to 135 ± 8.5.
As to GCGTG, the “TdT poly-dT extension signal” value was determined as 50 ± 7.3.
Regarding GCTCG, the “TdT poly-dT extension signal” value was found to be 83.1 ± 5.8.
AAGCA: the “TdT poly-dT extension signal” value turned out to be 50.6 ± 7.2.
The value for CTCGG was 158 ± 9.7.
Consider CATT, for which the “TdT poly-dT extension signal” value was determined as 60.5 ± 7.3.
As for CTCC, the “TdT poly-dT extension signal” value was 134 ± 18.
As to AGTAA, the “TdT poly-dT extension signal” value was 42.8 ± 5.5.
In the case of CGCGG, the “TdT poly-dT extension signal” value was 70.5 ± 7.6.
The value for GGTG was 60.4 ± 7.2; that for AGGGC was 58.6 ± 8.7; that for GGAGA was 83.4 ± 8.9.
Take GGCTC: the “TdT poly-dT extension signal” value was found to be 52.7 ± 7.3.
For ACCTT the value was 75.9 ± 4.1; for ATAAT, 246 ± 19.
Take AAACG: the “TdT poly-dT extension signal” value was found to be 71.4 ± 5.5.
As to AAAGT, the “TdT poly-dT extension signal” value was determined as 69.2 ± 6.7.
For TTGGG the value was 335 ± 18; for TTAGC, 308 ± 15.
For TCAAA the value was 212 ± 16; for CATAA, 110 ± 9.3.
For GCGAA, the “TdT poly-dT extension signal” value stood at 79.1 ± 7.7.
With TTCGA, the “TdT poly-dT extension signal” value is 367 ± 21.
The value for CTGGC was 114 ± 5.9.
Turning to GTTGT, the “TdT poly-dT extension signal” value is 139 ± 8.7.
For the sequence GATTG, the “TdT poly-dT extension signal” value is 84.5 ± 11.
The value for CACAC was 88.4 ± 8.7; that for TCAGC was 160 ± 12; that for GTCCC was 118 ± 13.
As for CCGCC, the “TdT poly-dT extension signal” value was found to be 73.4 ± 5.9.
For TCAAT the value was 174 ± 18; for TAGAA, 162 ± 14.
With ATCTA, the “TdT poly-dT extension signal” value amounted to 186 ± 9.6.
On to TGAAG, for which the “TdT poly-dT extension signal” value was 208 ± 9.1.
In the case of TGGCC, the “TdT poly-dT extension signal” value was determined as 121 ± 10.
As to TTATT, the “TdT poly-dT extension signal” value stood at 381 ± 16.
With CATGC, the “TdT poly-dT extension signal” value was found to be 78.3 ± 9.3.
Turning to GCGGA, the “TdT poly-dT extension signal” value was 69.8 ± 7.4.
With ATTTC, the “TdT poly-dT extension signal” value turned out to be 138 ± 12.
As for AGGGT, the “TdT poly-dT extension signal” value is 43.8 ± 4.7.
As to TCGC, the “TdT poly-dT extension signal” value was 132 ± 10.
In the case of AGGTC, the “TdT poly-dT extension signal” value was determined as 26.2 ± 5.7.
For TTGGT the value was 241 ± 22.
For the sequence GTGG, the “TdT poly-dT extension signal” value stood at 118 ± 9.7.
Turning to ACAGA, the “TdT poly-dT extension signal” value came to 85.7 ± 5.8.
For GAAT, the “TdT poly-dT extension signal” value came to 79.3 ± 7.4.
TATGT: the “TdT poly-dT extension signal” value was determined as 149 ± 16.
For AGCG, the “TdT poly-dT extension signal” value is 48.1 ± 6.1.
On to ATAGA, for which the “TdT poly-dT extension signal” value was found to be 236 ± 15.
Take GGGTC: the “TdT poly-dT extension signal” value came out at 60.9 ± 5.2.
The value for TATCT was 149 ± 14.
For ATAGT, the “TdT poly-dT extension signal” value came to 179 ± 18.
As to CTAAA, the “TdT poly-dT extension signal” value came to 224 ± 15.
Regarding AAATG, the “TdT poly-dT extension signal” value came to 85.4 ± 7.
On to AAGAC, for which the “TdT poly-dT extension signal” value is 70.7 ± 5.5.
With TATAC, the “TdT poly-dT extension signal” value stood at 157 ± 14.
As to CTACG, the “TdT poly-dT extension signal” value is 145 ± 12.
GTAAT: the “TdT poly-dT extension signal” value turned out to be 179 ± 14.
In the case of ATTAC, the “TdT poly-dT extension signal” value is 153 ± 15.
In the case of ACGAG, the “TdT poly-dT extension signal” value worked out at 68.5 ± 5.5.
As to TTGTC, the “TdT poly-dT extension signal” value was 254 ± 14.
In the case of GAAGC, the “TdT poly-dT extension signal” value worked out at 75.7 ± 9.7.
The value for ATGAA was 175 ± 12; that for TTCAG was 356 ± 32.
Consider ACCGT, for which the “TdT poly-dT extension signal” value turned out to be 91.3 ± 5.6.
As to TCCTC, the “TdT poly-dT extension signal” value is 186 ± 9.
TATTG: the “TdT poly-dT extension signal” value was determined as 135 ± 8.4.
With AGGCA, the “TdT poly-dT extension signal” value was determined as 44.1 ± 5.8.
Take CCTGT: the “TdT poly-dT extension signal” value worked out at 78.6 ± 4.2.
Take GCGAG: the “TdT poly-dT extension signal” value was 74.9 ± 6.4.
GCCTG: the “TdT poly-dT extension signal” value was 90.6 ± 8.8.
On to GACTG, for which the “TdT poly-dT extension signal” value came out at 85.6 ± 6.6.
For AAGGA, the “TdT poly-dT extension signal” value came to 50.6 ± 5.9.
In the case of GGTTA, the “TdT poly-dT extension signal” value worked out at 50.7 ± 4.8.
With CCTCT, the “TdT poly-dT extension signal” value is 62.1 ± 6.5.
As to CTTTC, the “TdT poly-dT extension signal” value was determined as 96.7 ± 12.
As to TACAT, the “TdT poly-dT extension signal” value was 177 ± 12.
Turning to GTGGA, the “TdT poly-dT extension signal” value came out at 127 ± 8.5.
As to CGTTG, the “TdT poly-dT extension signal” value was 53.7 ± 6.7.
Regarding CGGT, the “TdT poly-dT extension signal” value was found to be 33.6 ± 5.1.
With GTAGA, the “TdT poly-dT extension signal” value was determined as 191 ± 19.
Consider CCCG, for which the “TdT poly-dT extension signal” value came out at 106 ± 13.
On to AGTCC, for which the “TdT poly-dT extension signal” value amounted to 32.2 ± 4.3.
For the sequence TGAT, the “TdT poly-dT extension signal” value was found to be 135 ± 11.
The value for GGGGC was 82.9 ± 13.
TGGGC: the “TdT poly-dT extension signal” value was 111 ± 10.
Turning to GGGAG, the “TdT poly-dT extension signal” value is 106 ± 19.
For TTATC the value was 325 ± 29.
The value for TCAA was 200 ± 13.
The value for CCCTA was 91.3 ± 8.
